Hit rate of the full screen: of about 43,000 compounds, about 200 (0.47%) were called active. Roughly 12% stayed inconclusive and do not appear here. Calls follow the shape of the dose curve; as a rule, active = well fitted cell-killing curve with a large enough effect; inconclusive = small, poorly fitted or top-dose-only effect, or effect the other way; inactive = flat fitted curve, though single readings scatter. This is one part of the list.
% is scaled to controls: 0 for no effect and ±100 for the full control effect; potency is read from the fitted curve at half-maximal effect.

This assay in a line: Cell viability qHTS assay in S16 Pmp22-F2sN cells. Also: nearly all actives have a fitted effect of over 65% in size. The note with it: S16 Pmp22-F2sN Schwann cells (luciferase reporters placed in the Pmp22 gene) viability, CellTiter-Glo, 24 h; series mostly up to 57.5 µM; activity change, negative = cytotoxicity: at the top concentration. The method, boiled down: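 Luminescence from CellTiter-Glo, read by CCD camera after a 15 min room-temperature incubation, served as the viability signal. Reporter Schwann cells (S16 Pmp22-F2sN) had been treated with pin-transferred compounds for 24 h at 37C.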
A general note: qHTS replaces the single test concentration by a dilution series.
For the compound `Cc1ccccc1C(c1c(C)n(C)n(-c2ccccc2)c1=O)c1c(C)n(C)n(-c2ccccc2)c1=O`, the “activity change, negative = cytotoxicity” value is inactive: 7.07%.

In the case of `CCS(=O)(=O)c1ncc(Cl)c(C(=O)N(Cc2ccccc2)c2ccc(OC)cc2)n1`, the Potency is active: 4.47 µM.

Consider `Cc1ccc(-n2ncc3c(=O)n(Cc4ccccc4C)cnc32)cc1C`, for which the “activity change, negative = cytotoxicity” value is inactive: -0.506%.

For `Cc1cc(C)c(CN2C(=O)c3ccccc3S(=O)(=O)c3ccc(C(=O)OCC4CCCO4)cc32)c(C)c1` (configuration not stated), the “activity change, negative = cytotoxicity” value is inactive: 1.02%.

Regarding `CC(C)c1ccc(NC(=O)Cn2c(=O)n(Cc3nc(-c4ccccc4)no3)c(=O)c3cc4c(cc32)OCO4)cc1`, the “activity change, negative = cytotoxicity” value was inactive: 1.64%.

Consider `CC(=O)c1cccc(NC(=O)N2CCC(CN3CCCCC3)CC2)c1`, for which the “activity change, negative = cytotoxicity” value is inactive: 6.2%.

`CCOC(=O)c1ccc(NC(=O)c2cc3c([nH]c2=O)CC(c2ccccc2)CC3=O)cc1` (configuration not stated): the “activity change, negative = cytotoxicity” value was inactive: -14.1%.

Consider `CCn1c(=O)c2sccc2n2c(CCCC(=O)Nc3ccc(OC)c(OC)c3)nnc12`, for which the “activity change, negative = cytotoxicity” value was inactive: 17%.

On to `Cc1cc(C)n(C(C)CC(=O)Nc2ccc(C)c(F)c2)n1` (configuration not stated), for which the “activity change, negative = cytotoxicity” value was inactive: -3.43%.

Regarding `Cc1ccccc1Cn1c(SCc2ccc(C(=O)NCCc3ccccc3)cc2)nc2ccncc21`, the “activity change, negative = cytotoxicity” value was inactive: -29.4%.

Turning to `CSc1ncc(Cl)c(C(=O)N(Cc2ccc(C(C)C)cc2)C2CCS(=O)(=O)C2)n1` (configuration not stated), the “activity change, negative = cytotoxicity” value was inactive: -6.91%.

In the case of `COc1ccc(-n2cc(-c3ccc4c(c3)OCO4)n(CC(=O)Nc3cccc(C)c3)c2=O)cc1`, the “activity change, negative = cytotoxicity” value is inactive: -12.4%.

Consider `CCCCC1CCC(CCCC(C)CCC(=O)O)CC1` (configuration not stated), for which the “activity change, negative = cytotoxicity” value was inactive: 11.1%.

As to `COc1cccc(-c2n[nH]c3c2C(c2ccccn2)N(C)C3=O)c1` (configuration not stated), the “activity change, negative = cytotoxicity” value is inactive: 11.2%.

Regarding `O=C(CC1N=C2c3ccccc3N=C(SCC(=O)Nc3ccc(F)cc3)N2C1=O)NCc1ccc2c(c1)OCO2` (configuration not stated), the “activity change, negative = cytotoxicity” value was inactive: -4.53%.

On to `Cc1cccc(NC(=O)Cn2cc(S(=O)(=O)Cc3ccccc3Cl)c3ccccc32)c1`, for which the “activity change, negative = cytotoxicity” value is inactive: -5.13%.

For the compound `Cc1noc(Cn2c(=O)c3ccccc3n(CC(=O)Nc3ccc(C(C)C)cc3)c2=O)n1`, the “activity change, negative = cytotoxicity” value was inactive: -11.6%.

As to `CCn1cc(S(=O)(=O)c2ccc(C)cc2C)c(=O)c2cc(F)c(N3CCCCC3)cc21`, the “activity change, negative = cytotoxicity” value is inactive: -13.4%.

With `CCOc1ccc(NC(=O)CN2CCSc3ccc(S(=O)(=O)N4CCCC4)cc32)cc1`, the “activity change, negative = cytotoxicity” value is inactive: 0.607%.

Consider `CCN(CC)c1cc2c(cc1F)c(=O)c(S(=O)(=O)c1ccccc1)cn2C`, for which the “activity change, negative = cytotoxicity” value is inactive: -23.9%.

For the compound `COC(=O)c1c(NC(=O)/C=C/c2ccc(OC)c(OC)c2)sc2c1CCC2`, the “activity change, negative = cytotoxicity” value was inactive: 5.21%.

For the compound `Cc1cc(C)cc(N(CC(=O)NCc2ccccc2Cl)S(=O)(=O)c2c(C)[nH]c(=O)[nH]c2=O)c1`, the “activity change, negative = cytotoxicity” value is inactive: 1.18%.

Take `CCc1ccccc1NS(=O)(=O)c1cc(Br)cc2c1N(C(=O)C1CC1)CC2`: the “activity change, negative = cytotoxicity” value is inactive: 9.37%.

In the case of `CCOC(=O)Cn1c(=O)n(CC2CCCO2)c2nc(-c3c(F)cccc3Cl)nc(C(N)=O)c21` (configuration not stated), the “activity change, negative = cytotoxicity” value was inactive: -1.38%.

Turning to `CC(Nc1oc(-c2ccc(COc3ccc(Cl)cc3)o2)nc1C#N)c1ccccc1` (configuration not stated), the “activity change, negative = cytotoxicity” value is inactive: 4.37%.

Turning to `CCN(CC)CCCNC(=O)CN1C(=O)COc2ccc(S(=O)(=O)N3CCC(C)CC3)cc21`, the “activity change, negative = cytotoxicity” value is inactive: 10.5%.

For the compound `CCN(CC)c1ccc(NC(=O)CN2C(=O)c3cccnc3Oc3ccc(Cl)cc32)c(C)c1`, the “activity change, negative = cytotoxicity” value is inactive: -7.14%.

On to `COCCNC(=O)CSc1nnc2[nH]c(=O)cc(C)n12`, for which the “activity change, negative = cytotoxicity” value is inactive: -5.08%.

On to `O=C(NCc1ccccc1)c1ccc2c(c1)nc1n2CCOC1`, for which the “activity change, negative = cytotoxicity” value is inactive: 13.6%.

For the compound `CCC(=O)Nc1cc2nn(-c3ccc(C)cc3)nc2cc1C`, the “activity change, negative = cytotoxicity” value is inactive: 0.938%.

Turning to `Cc1ccc(NC(=O)[C@@H](c2ccccc2)N2Cc3ccccc3C2=O)cc1F`, the “activity change, negative = cytotoxicity” value was inactive: 0.297%.

For the compound `Cc1c(C(=O)NCc2ccc(F)cc2)sc2nc(-c3ccc(F)cc3)cn12`, the “activity change, negative = cytotoxicity” value is inactive: -21.5%.

Take `O=C(CSc1ncc2c(n1)-c1ccc(Cl)cc1N(Cc1ccccc1)S2(=O)=O)Nc1ccccc1C(F)(F)F`: the “activity change, negative = cytotoxicity” value was inactive: -8.27%.

In the case of `CCOC(=O)Cn1c(=O)n(CC2CCCO2)c2nc(-c3ccc(CC)cc3)nc(C(N)=O)c21` (configuration not stated), the “activity change, negative = cytotoxicity” value was inactive: 0.936%.

Consider `COc1ccc(CCNC(=O)Cn2c(=O)c3cccn3c3ccccc32)cc1OC`, for which the “activity change, negative = cytotoxicity” value was inactive: 12.6%.

Consider `CCCc1nn2c(=O)cc(COC(=O)c3ccco3)nc2s1`, for which the “activity change, negative = cytotoxicity” value is inactive: 5.17%.

With `Cc1ccccc1CN1C(=O)c2ccccc2S(=O)c2ccc(C(=O)NCc3ccc4c(c3)OCO4)cc21` (configuration not stated), the “activity change, negative = cytotoxicity” value was inactive: -8.8%.

`COc1cccc(CNC(=O)CCC(=O)N2CC(C)Sc3ccccc32)c1` (configuration not stated): the “activity change, negative = cytotoxicity” value was inactive: 0.501%.

As to `COc1ccc(CNC(=O)C(=O)Nc2cc(Cl)ccc2OC)cc1`, the “activity change, negative = cytotoxicity” value is inactive: 10.5%.

Turning to `COc1ccc(N2CCN(S(=O)(=O)CCNC(=O)c3c(F)cccc3Cl)CC2)cc1`, the “activity change, negative = cytotoxicity” value is inactive: -3.09%.

As to `CC(=O)Nc1cc(C(=O)Nc2ccc3c(c2)N(C)C(=O)c2ccccc2S3)ccc1C`, the “activity change, negative = cytotoxicity” value is inactive: 2.88%.

As to `CCCN(CCC)C(=O)C1CCCN(c2ncnc3c2nc2n3CCCCC2)C1` (configuration not stated), the “activity change, negative = cytotoxicity” value is inactive: -10.4%.

As for `Cc1ccccc1CNC(=O)c1ccc(CN2CC(=O)N3CCCCC3C2=O)cc1` (configuration not stated), the “activity change, negative = cytotoxicity” value is inactive: 1.47%.

Take `Cc1nc2c(c(C)nn2C(C)(C)C)c(C)c1CCC(=O)Nc1ccc(Br)cc1Br`: the “activity change, negative = cytotoxicity” value is inactive: 20.8%.

Turning to `Cc1ccc(NS(=O)(=O)c2c(C)nc3sc(C)cn3c2=O)c(C)c1`, the “activity change, negative = cytotoxicity” value was inactive: -22.9%.

For `Cc1cccn2c(=O)c(C(=O)NCCc3ccc(Cl)cc3)cnc12`, the “activity change, negative = cytotoxicity” value is inactive: -3.3%.

With `CC(=O)c1ccc(NC(=O)C2CCC(CNS(=O)(=O)c3cccc4nsnc34)CC2)cc1` (configuration not stated), the “activity change, negative = cytotoxicity” value was inactive: 3.64%.

The values above are taken from PubChem BioAssay AID1508642 (National Center for Advancing Translational Sciences (NCATS), 2021).
